Experimental data from the supplement of paper PMC11417369.
The list shows a part of the results.

Tested on: PF3D7_0420300 AP2 domain 1 (GST-tagged)
Assay: gcPBM binding intensity (ln(normalized median fluorescence intensity)); higher = stronger DNA binding
Method in brief: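 GST-fused DNA-binding domains of P. falciparum, expressed in E. coli, were applied at about 25 μg on average for 1 h to an Agilent 4 × 180k array of primer-extended double-stranded 36-bp intergenic genomic probes and negative controls. Binding intensity is the highest Masliner-normalised natural-log median intensity across replicate spots of either probe orientation, measured with Alexa488 anti-GST antibody and a 488 nm scan.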

| Sequence | gcPBM binding intensity (ln) |
| --- | --- |
| ATATATATATATATATGTACATATATCTACATATAT [XGTACX_site7588] | 9.11 |
| ACTTTTTAATATTTTAGTACACAGTAATTCTTACTA [XGTACX_site1425] | 9.22 |
| TTTAATATGAATTTATGTACATATATATATATATAT [XGTACX_site6337] | 9.09 |
| TATATTAAAAAAAAATGTACATATATATAATATATA [XGTACX_site1935] | 9.19 |
| ATACGTATATAATATACATGCATATATAGCACATAC [TGCATGCA_site376] | 9.37 |
| ATAAAAAAAAAAAAAAATGAAGCATCACCGTGTAAT [XGTACX_negctrl_site288] | 9.46 |
| CACGAAAAAAAAAAATGTACATAAAAATATGATACA [XGTACX_site2536] | 9.31 |
| GAAAGAGAAATATATACACACATATTTATATTTTTA [CACACA_site2066] | 9.33 |
| AAAAAAAAAAAAAAAAAAAAAGGACGGATGGATGGA [GTGCAC_negctrl_site527] | 9.48 |
| TCTCATTTCAACAACAGTACATATCTATCTGTGTAT [XGTACX_site6897] | 9.16 |
| AAAAAAAAAAAAAATAGTACGTAACTATAATTTCCT [XGTACX_site2457] | 9.06 |
| CTTATACTTCTACATCGTACAAAAGATGGTATAATT [XGTACX_site2698] | 9.08 |
| AAATTATAAGTAAAAAGTACTTAATATATAATAAAC [XGTACX_site6065] | 9.4 |
| TAACTTAAATAATACATACACACATGTACATACAGA [CACACA_site1594] | 9.63 |
| TATAATTTTTTTTGGGTGCTTGGGTAAATTTTATTA | 9.53 |
| AATTATATATTATCATGTACAAATATAGTAATACAA [XGTACX_site6845] | 9.27 |
| TATATAAATGGACACACACACACCTTATAATTATTA [CACACA_site6093] | 10.2 |
| AATGTGTTCATATATGCACACGCATATATATTATTG [CACACA_site9274] | 9.44 |
| TTTATAAATTGACACACACACATGTGAACATAAAAA [CACACA_site6978] | 9.75 |
| CCTAATTTTTTTAGTTGTACTTTTTTTTTTTTTTAT [XGTACX_site7948] | 9.34 |
| GCCTATATGTTTAGTTGTACTCCTAATATTATTTGT [XGTACX_site6060] | 9.75 |
| CAAATTATTTCGAGGTGTACTTTTTTATATTATATT [XGTACX_site8309] | 9.56 |
| ATTGATTTTTAATATACACACATAAGTACCACAAAA [CACACA_site339] | 9.6 |

| Sequence | gcPBM binding intensity (ln) |
| --- | --- |
| ACATTAATATAAAGCACACATATATATAATATATAT [CACACA_site508] | 9.45 |
| AAAAATATAAACTGCACACACAAAAAAAAAAGAGAA [CACACA_site1367] | 10.1 |
| TATAACATATTTATATATGACATTATCTATTCATTT [CACACA_negctrl_site864] | 9.18 |
| TTAATATTGTATCCAAGTACACAAATTATTATATTT [XGTACX_site8067] | 9.21 |
| CAATATTATTATATTTGTACACATGCGTATTTTTTA [XGTACX_site4154] | 9.26 |
| CCCGTAAATACAAAAAGTACAAAAGTTCATCTTATA [XGTACX_site1154] | 9.12 |
| TAATAATAATATAAAATACACACCTATTATTTTTAC [CACACA_site4003] | 9.42 |
| CATGATATATAAATATGTACATATATATATATATAT [XGTACX_site1760] | 9.43 |
| ATGTAACACATATTTGGTACAGATAGATAAAAGTAT [XGTACX_site8291] | 9.44 |
| TATATATATATATTCACACATAAAAATAAAATAAAA [CACACA_site4774] | 9.26 |
| GTATAATATATTTATAGTACATAATTATTTATAAAT [XGTACX_site1826] | 9.16 |
| ATATATATATATGTGTGTACTTATTTATTTATTTGT [XGTACX_site549] | 9.8 |
| TTTTCTTAATATTTATGTATATATATAATATGATAT [TGCATGCA_negctrl_site572] | 9.11 |
| TAATAAATCCTATATAGTACATATATGCAAGTATGT [XGTACX_site3955] | 9.24 |
| AAATTTATATAAAACAGTACAATTAAAAAAAAAATA [XGTACX_site8015] | 9.33 |
| GAAACGTTTTTGAGTAGTACACACACAATAAGGATG [XGTACX_site6809] | 9.72 |
| ATATAAATATAAACATGTACATATATATATATATAT [XGTACX_site2824] | 9.25 |
| TTTGTAATAACATATGCATGTTCAAAAAATAAAATA [TGCATGCA_site817] | 8.97 |
| ACGTTTTATTTTTATTGTACTCACATTGAAATGAAT [XGTACX_site6094] | 9.54 |
| ATTTTTTTATAAAATTTTTTATATATTAAATATTAT [CACACA_negctrl_site135] | 9.04 |
| AAAATTGTGCTTTCACGGACACAAGATCGAAATAGA [XGTACX_site4068] | 9.13 |
| ATATATTTATACATTTGTACATATACATATTTCTGA [XGTACX_site3982] | 9.2 |
| ATTTTTTTTGTAAAAGTGCATATATATATATATATA | 9.14 |

| Sequence | gcPBM binding intensity (ln) |
| --- | --- |
| ATAGATATACATATCACACATATATATATATATATA [CACACA_site4985] | 9.18 |
| AAATACATATATACATGTACATAAATATATATATAT [XGTACX_site5367] | 9.22 |
| TAAGGTAGTTCTGTATCACACACATATATATATATA [CACACA_site8693] | 9.64 |
| TGAGAAAGCGCATATTGTACTATATATTTTAACCAC [XGTACX_site4098] | 9.27 |
| AATCCATTCTATTTTTTACACACGTATGTAAATATT [CACACA_site8860] | 9.52 |
| AATATATATGGACATGCATGGACATAATAATCTATT [TGCATGCA_site838] | 9.36 |
| GAAAATAATGTTACATGTACGAATATGTAACTATTG [XGTACX_site6833] | 9.22 |
| ATTTATCTATATATATGTACATATTATTTTTGTGGT [XGTACX_site7390] | 9.49 |
| GATATACAATTTAAGTGTACTATAATAAAATATATA [XGTACX_site3013] | 9.05 |
| ATAAAAAAATATAAATGTACATATATATATATATAT [XGTACX_site5620] | 9.15 |
| TATATTAATTCGTTTTGTACACACATAATGAATAAT [XGTACX_site4618] | 9.38 |
| TTTAAAATATTGTATTGTACGCAATAAAAAATACCA [XGTACX_site182] | 9.15 |
| ATTAAATAAAATCATGCACACAATATATATTTTAAG [CACACA_site2495] | 9.4 |
| ATAAGCATCTTTTGTGTGCACATAACAAAAAAAAAA | 9.36 |
| TCTAACATATCTTTAATACACACTTAAAAAAGTACT [CACACA_site652] | 9.15 |
| ATTTTACATATTTGCACACATATATTTATATACATA [CACACA_site854] | 9.77 |
| TTATTTGTTTAATATGCATGCTAAAAGGGTTGATGT [TGCATGCA_site581] | 9.27 |
| GAGTAAAACAAATATACACACCATAAAGTTATAAAA [CACACA_site5008] | 9.66 |
| AATATAAAAATGCACACACACAAAAAAAAAAAAAAA [CACACA_site6546] | 9.84 |
| AATTTAAATTCATCACGTACATACGTGAATATACAC [XGTACX_site5220] | 9.14 |
| CATAAAAATGTATCAAGTACACATTTATTTATCCAT [XGTACX_site152] | 9.16 |
| GTATAACACAAGTGAAGTACAGGGGTAAACATTTAT [XGTACX_site3203] | 9.52 |
| TACAGATAAAAGTACACACACACACCGATATATATA [CACACA_site4675] | 10.2 |

| Sequence | gcPBM binding intensity (ln) |
| --- | --- |
| ATAAAAAAATATGTAAACATATATATGTATTTATGT [CACACA_negctrl_site1517] | 9.2 |
| TTAAAATAAAGAGCAGTGCGCATATTTTGTTATTAT [GTGCAC_site9753] | 9.22 |
| TTTTTATATTTTATTAGTACTTATTATATATATAAT [XGTACX_site4900] | 9.26 |
| TTTTTTTTTAAAGAAAATAAAAATATGTACTTGACA [CACACA_negctrl_site1113] | 8.63 |
| AAACAATTTTTATTTTGTACATAACAATATATTTAT [XGTACX_site1375] | 9.15 |
| ATTCGTGAACTAGCCAAACACACGAAAAAAAAAAAA [CACACA_site3342] | 9.11 |
| ATGTAACATAGGAAATGTACATATAAATATAATTTA [XGTACX_site6452] | 9.16 |
| TTTTTTTTTGGGGGTGCATGCAAGACATATATTTAA [TGCATGCA_site228] | 9.35 |
| CATACATATATATATACACACATACATATATATACA [CACACA_site8165] | 9.65 |
| TTTTTTTTTTGATGTTGTACATATATATTATATAAT [XGTACX_site2765] | 9.21 |
| GCTATTTATTTATATTGTACTTTTTTTTTTTTTTTT [XGTACX_site3624] | 9.59 |
| TATTTTGTTCTTTCCACACACAAATACCTATCTTGT [CACACA_site7833] | 9.81 |
| ACAAAATTGATATATGCACACATATATATATTAAAT [CACACA_site8152] | 9.51 |
| GTAGGTTTATATTGTAGTACATACAAACGTTAACAA [XGTACX_site5476] | 9.14 |
| TTTATTTATTATTAAAGTACTAAAATATATTATTAT [XGTACX_site4887] | 9.06 |
| ATACGTATTTTCTTTTGTACATATATATAAAATATT [XGTACX_site2675] | 9.42 |
| TATATTTATTAGTTTCGTACGTACAAAGTTATTTTT [XGTACX_site8847] | 9.27 |
| AATATTGCACCATTTTGTACATAATATATTCAAATA [XGTACX_site475] | 9.34 |
| TATTTTAATATTTGTAGTACAGATTGAAATGACGAA [XGTACX_site4805] | 9.15 |
| ATATACGCATTAATAACACACAATATGATAACAAAT [CACACA_site3623] | 9.75 |
